Reference: the RNAGym collection of RNA variant scans (doi:10.7554/elife.90254)
Read counts are not given, so values of variants with three or more changes are uncertain.

B1: LINE1-mini (parent)
chain: GGCAGAGCUCAACACAGCGUGGCAAAGUGGCUGUGGCUAGACUGCC

Variants of: B1
Experiment: self-cleavage, relative activity (ratio to wild type); higher = more cleavage; in vitro, sequencing; the parent is a self-cleaving ribozyme

Question: For GGCAGAGCUCAACAAAGCGUGACAAAGUGGCUGUGGCUAGACUUCC [C15A G22A G44U], which self-cleavage is on record?
Answer: Its self-cleavage is 0.1.

Question: With GGCAUUGCUCAACACAGCGUGGCAAAGUGGCCGUGGCUAGACUGCC [G5U A6U U32C] as the variant, how does the self-cleavage read?
Answer: Its self-cleavage is 0.11.

Question: Which self-cleavage does the source give for GGCAGAGGUCAACACAGCGUGGCAGAGUGGCUCUGGCUAGACUGGC [C8G A25G G33C C45G] here?
Answer: The self-cleavage was 0.07.

Question: With GGCAGAGCACGACAGAGCGUGGCAAAGUGUCUGUGGCUAGACUGCC [U9A A11G C15G G30U] as the variant, how does the self-cleavage read?
Answer: Its self-cleavage is 0.03.

Question: For GCCGUAGCUCAACACAGCGUGGCAAUGUGGCUGUGGCUAGACUGUC [G2C A4G G5U A26U C45U], which self-cleavage is on record?
Answer: The self-cleavage was 0.08.

Question: With GGCAGAGUUCAACGCAGCGUGGCAAACCGGCGGUGGCUAGACUGUC [C8U A14G G27C U28C U32G C45U] as the variant, how does the self-cleavage read?
Answer: Its self-cleavage is 0.02.

Question: Which self-cleavage does the source give for GGCAGAGCUCAACGGAGCGUGGCAAAGUGGCUUUGGCUAGACUGCC [A14G C15G G33U] here?
Answer: Its self-cleavage is 0.11.

Question: With GGCAGUGCUCAACACAGCGGGGGAAAGUGGCUGUGGCUAGACUGAC [A6U U20G C23G C45A] as the variant, how does the self-cleavage read?
Answer: The self-cleavage was 0.64.

Question: For CGCAGAGCUCAACACAGAGUGGCAACGUGGCUGUGGCUAGACUGCC [G1C C18A A26C], which self-cleavage is on record?
Answer: Its self-cleavage is 0.07.

Question: Which self-cleavage does the source give for GGUAGAGCUCAACACACCAUGGCAAAGUGGCUGUGGCUAGACUGCC [C3U G17C G19A] here?
Answer: The self-cleavage was 0.22.

Question: Which self-cleavage does the source give for GGCAGAGCUCAACACAGCGUGGCAAAGCGGCUGUUGCUAAACUGCC [U28C G35U G40A] here?
Answer: The self-cleavage was 0.11.

Question: For GGCUGAGCUCAACACAGCGUGGCAAAAUGGCUGUGACUAGACUGCC [A4U G27A G36A], which self-cleavage is on record?
Answer: The self-cleavage was 0.09.

Question: With GGCAGAGCUCAACACAGCGUGGCAAAGUGGGUGUUGGUAGACUGCC [C31G G35U C37G] as the variant, how does the self-cleavage read?
Answer: The self-cleavage was 0.

Question: Which self-cleavage does the source give for GGCUGAGCUCAACACGGCGUGGCAAAGUGGUUGCGGGUAGACUGCC [A4U A16G C31U U34C C37G] here?
Answer: Its self-cleavage is 0.

Question: Which self-cleavage does the source give for GGCAAAGAUCAACACAGCGUGGCAAAGUGGCUUUAGCUAGACUGCC [G5A C8A G33U G35A] here?
Answer: Its self-cleavage is 0.07.

Question: For GGCAGGGCUCAACACAGCGUGGCAAAGUUGCUGUGGCAAGACUGCC [A6G G29U U38A], which self-cleavage is on record?
Answer: Its self-cleavage is 0.

Question: For GGCAGAGCUAAACACAGAGUGGCAAAAUGGCUGUGGCUAGACUGCC [C10A C18A G27A], which self-cleavage is on record?
Answer: The self-cleavage was 0.11.

Question: With GGCAGAGUUGAAUACAGCGUGGCAAAGUGGCUGUGGCUAGACUGCC [C8U C10G C13U] as the variant, how does the self-cleavage read?
Answer: The self-cleavage was 0.01.

Question: With GGCAGAGCACAACACAGCGUGGCCAAGUGGCUGUGGCUAGAGUGCC [U9A A24C C42G] as the variant, how does the self-cleavage read?
Answer: The self-cleavage was 0.

Question: For GGCAGGCCUCAACACAGCGUGGGAAAGCGUCGGUGGCUAGACUGCC [A6G G7C C23G U28C G30U U32G], which self-cleavage is on record?
Answer: Its self-cleavage is 0.03.

Question: With GGCAAGCCUCAACAAAGCGUGCCAAAGUGGCAGUGGCUAGACUGCC [G5A A6G G7C C15A G22C U32A] as the variant, how does the self-cleavage read?
Answer: Its self-cleavage is 0.02.

Question: With GGCAGAGCUCAACACAGAGUGGCGAAGUGGCUGAGGCUAGACUGAC [C18A A24G U34A C45A] as the variant, how does the self-cleavage read?
Answer: The self-cleavage was 0.

Question: With GGCCGAGCUCAACACACCGUGGCAAAGUGGCUGUGACUAUACUGCC [A4C G17C G36A G40U] as the variant, how does the self-cleavage read?
Answer: Its self-cleavage is 0.08.

Question: Which self-cleavage does the source give for GGCAGAGCUCAAGACGGGGUGGCAAAGUGGCUGUGGCUAGACUGCC [C13G A16G C18G] here?
Answer: Its self-cleavage is 0.02.

Question: With GGCAGAGCUAAGCAUCGCGUGGCAAAGUGGCUGUGGCUAGACUGCC [C10A A12G C15U A16C] as the variant, how does the self-cleavage read?
Answer: The self-cleavage was 0.02.

Question: Which self-cleavage does the source give for GUCAGUGCUCAACACAGCGUGGCAAAGUGGCUGUGGCUCGACUGAC [G2U A6U A39C C45A] here?
Answer: Its self-cleavage is 0.08.

Question: For GGAAGAGCUCAACGCAGCGUGGCAAAGUGGCUGUGGCUACACUGCC [C3A A14G G40C], which self-cleavage is on record?
Answer: Its self-cleavage is 0.17.

Question: With GGCAGAGCUCAACACAGCGUGGGAUAGUGGCUGUGUCUAGACUGCC [C23G A25U G36U] as the variant, how does the self-cleavage read?
Answer: The self-cleavage was 0.03.

Question: With GACAGAGCUCAACACAGCGUGGCAAAGUGGCUGUGGAAAAAAUGCC [G2A C37A U38A G40A C42A] as the variant, how does the self-cleavage read?
Answer: Its self-cleavage is 0.08.

Question: With GGCAAAGCUCAUCACAGCGUGGCAAAGUGGCUGUGGCUAUACUGCC [G5A A12U G40U] as the variant, how does the self-cleavage read?
Answer: The self-cleavage was 0.03.

Question: For CGCAUAGCUCAACAACGCGUCGCAAAGUGCCUGUGGCUAGACUGCC [G1C G5U C15A A16C G21C G30C], which self-cleavage is on record?
Answer: The self-cleavage was 0.02.

Question: For GGCAGAGCUCAACACAACGUGGCAAAGUGGAUGUGACUAGACUGCC [G17A C31A G36A], which self-cleavage is on record?
Answer: The self-cleavage was 0.03.

Question: For GGCAGAGCUCAAUACAGCGGGACAAAGUGGCUGUGGCUAGACUGCC [C13U U20G G22A], which self-cleavage is on record?
Answer: Its self-cleavage is 0.13.

Question: For GGCAGCGCUCAACACAGCGUGGCAAAGCGGCUGUGGCUAGACAGCC [A6C U28C U43A], which self-cleavage is on record?
Answer: The self-cleavage was 0.1.

Question: Which self-cleavage does the source give for GGCAAAGCUCAACACAGCGUGAGAGAGUGGCCGUGGCUAGACUGCC [G5A G22A C23G A25G U32C] here?
Answer: The self-cleavage was 0.01.

Question: For GGCAGAGCUCAAUACAGGGUGGCAAAGUGGCUGUGGCUAAACUGCC [C13U C18G G40A], which self-cleavage is on record?
Answer: Its self-cleavage is 0.06.

Question: Which self-cleavage does the source give for GGCAGAGCUCAACACAGUGUGGCAAUGUGGCUGUGGCUAGCCUGCC [C18U A26U A41C] here?
Answer: The self-cleavage was 0.09.

Question: For GGCGGAGCUCAACACAGCGUGGAAAAGUGGUUGUGGCUAGACUACG [A4G C23A C31U G44A C46G], which self-cleavage is on record?
Answer: Its self-cleavage is 0.13.

Question: For GGCAGAGCUCAACACCGCGUGGCAAAGUUGCUUUGGCUAGACUUCC [A16C G29U G33U G44U], which self-cleavage is on record?
Answer: The self-cleavage was 0.01.

Question: Which self-cleavage does the source give for GGCGGAGCUCAACACAGCGUGACAAAGUGUCUGUGGCUAGACUGCC [A4G G22A G30U] here?
Answer: Its self-cleavage is 0.15.

Question: Which self-cleavage does the source give for GACAGAGCUGUACACAGCGUGGCAAAGUGGCUGUGGCUAGCCUGCC [G2A C10G A11U A41C] here?
Answer: Its self-cleavage is 0.09.

Question: With GGCACAGCUCAGCGCAGCGUGGCAAAGUGGCUGUGGCUAGUCUGCC [G5C A12G A14G A41U] as the variant, how does the self-cleavage read?
Answer: Its self-cleavage is 0.02.

Question: With GGCAGUGCUCAACACAGCGUGGCAAAGUCUCUGUGGCUAGACUGCC [A6U G29C G30U] as the variant, how does the self-cleavage read?
Answer: The self-cleavage was 0.17.

Question: Which self-cleavage does the source give for GGCAGAGCUCAACACAGCGUGGCAGACUGGCUGUGGCUACACUGCC [A25G G27C G40C] here?
Answer: Its self-cleavage is 0.

Question: For GGCAGUGCUCAACACCGCGCCGCAAAGUGGCUGUGUCAAGACUGCC [A6U A16C U20C G21C G36U U38A], which self-cleavage is on record?
Answer: Its self-cleavage is 0.01.

Question: For GGCAGAGCUCAACAACCCGUGGCAAAGUGGCUGUGGCCAGACUGCC [C15A A16C G17C U38C], which self-cleavage is on record?
Answer: The self-cleavage was 0.06.

Question: For GGCAGAGCACAUCACAGCGUGGGAAAGUGUCUGUGGCUAGACUGCC [U9A A12U C23G G30U], which self-cleavage is on record?
Answer: The self-cleavage was 0.

Question: For GGCAGAUCUCAACACAGCGUGGCAAAGUGUCUGUGGCUACACUGCC [G7U G30U G40C], which self-cleavage is on record?
Answer: The self-cleavage was 0.15.

Question: Which self-cleavage does the source give for GACAGAGCUAAACACAGCGUGGCUAAGUGGCUGUGGCUAGACUGCC [G2A C10A A24U] here?
Answer: Its self-cleavage is 0.06.

Question: With GGCAGAGCUCAACACAGCGUGGCAAAGCGGCUUUGGGUAAACUGCC [U28C G33U C37G G40A] as the variant, how does the self-cleavage read?
Answer: The self-cleavage was 0.05.

Question: Which self-cleavage does the source give for GGCAGAGCUCAACACAGCGUGGCAUAGUGGCCGUGGUUAGACUGCC [A25U U32C C37U] here?
Answer: Its self-cleavage is 0.08.

Question: Which self-cleavage does the source give for GGCAGAGGACAACACAGCGUGCCAAAGUGGCUUUGGAUAGACUGCC [C8G U9A G22C G33U C37A] here?
Answer: Its self-cleavage is 0.12.

Question: With UGCAGGGCUCAACACAGCGUGGCAAAGUGGCUGUGGCUAGACUCCC [G1U A6G G44C] as the variant, how does the self-cleavage read?
Answer: The self-cleavage was 0.01.

Question: With GGCAGAGCUCAACCCAGCGGGGCAAAGUGGCUGUGCCUAGACUGCC [A14C U20G G36C] as the variant, how does the self-cleavage read?
Answer: The self-cleavage was 0.

Question: With GGCAGAGCUCAACACAGCGUGGCAAAGUGGGUGUGGCUAGACCGUC [C31G U43C C45U] as the variant, how does the self-cleavage read?
Answer: Its self-cleavage is 0.03.

Question: Which self-cleavage does the source give for GGCAGACCUCAACACAGCGUGGCAAAGUGACUGCGGCUAGACUACC [G7C G30A U34C G44A] here?
Answer: The self-cleavage was 0.05.
